Laboratory results as given in paper PMC10726135.
The other results are listed elsewhere or left out. At the low end of the ranking the order means little. The protein was read in a cell extract, so binding may be indirect.

What follows are sequences tested against T1, HNF4alpha2 (COS-7 nuclear extract) (UniProt P41235) (assay: protein-binding microarray). Details: COS-7 nuclear extract on double-stranded Agilent 4x180k PBM; binding buffer, salt, pH and temperature not given; high values mean tight binding; double strand, one strand shown; sequences stand for … in …GCCTAGGGAGATTAGAGTATCGGTCGA.
T1 sequence: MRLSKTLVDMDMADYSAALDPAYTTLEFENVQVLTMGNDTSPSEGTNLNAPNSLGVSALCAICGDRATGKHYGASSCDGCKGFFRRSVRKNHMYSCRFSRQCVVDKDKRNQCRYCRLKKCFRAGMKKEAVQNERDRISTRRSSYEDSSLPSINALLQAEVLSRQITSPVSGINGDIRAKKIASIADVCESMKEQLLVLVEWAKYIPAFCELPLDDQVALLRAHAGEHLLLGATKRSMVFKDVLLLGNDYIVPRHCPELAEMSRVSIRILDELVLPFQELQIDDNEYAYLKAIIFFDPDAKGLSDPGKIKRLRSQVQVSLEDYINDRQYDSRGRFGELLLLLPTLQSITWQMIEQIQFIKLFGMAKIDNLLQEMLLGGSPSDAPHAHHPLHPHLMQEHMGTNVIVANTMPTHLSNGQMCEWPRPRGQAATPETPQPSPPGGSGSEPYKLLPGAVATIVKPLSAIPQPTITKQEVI

Row | Sequence | binding signal (log2 normalized intensity)
1 | AGAATGCGAACCATTTCCCATGGGACTGGC | -1.22
2 | GCACGCTTAGGGAACAAAGGTCAGTCCCGC | 6
3 | TATGACCAGTGTGTTGTGCTGACCTCCTGT | 3.19
4 | TTGACTGCAGAAGATAAGAATCTCTTTGTA | -1.11
5 | GCAAGCTTGACCTTTGATCCAGGCTCAGTG | 7.48
6 | TATACAGTTGTGGGTATGTCTGTAGGTAAG | 1.69
7 | TCTGCCCCTTATCTTCTGGCCACCTCTTCC | 1.69
8 | ATCCTGGCTCTCCCACTTATCAGCCATGTG | -1.12
9 | AGGTAACATACCAAAAAGCATAACTGTATA | -1.01
10 | GCGGCTTCAGAGGCCAGCAGTGCTTTTCCC | -0.963
11 | AGTAACACAGTAAGAGACTTCACCATCTGC | -1.1
12 | CTGGGATGAGATACCCATTCACATGACCTT | 3.29
13 | TCCTCAGGGAATTTCTAGGTTTGATCTTTG | 2.95
14 | GGAGTGTGGGGTGGTGTCAGGAGTACAGGT | 1.29
15 | GCAGACTTAGACCCTGACCTGGCATATCTC | 1.69
16 | TGTTGAATACTTGGAGACAGTGAGACGCAA | -1.1
17 | GAGGATTAGTGGGAGATAAGGTGGAAAGAC | -1.16
18 | TTTCAAACACCTGGGTCTGACCTCTTTCAA | 2.54
19 | CTTCTCTGCCTCAGAACTTCACTCAGTGGG | 1.64
20 | AAGGTTGACACCTAGCTGAGCAGGGGACTA | -1.13
21 | CAAGAATGCGTCATCCGCATCTGAAGATAA | -1.16
22 | CACCTTTGGATCCAGCTCCTGATGTTTGGT | 2.02
23 | TCTGACTGGCCCAGCCTGGCCTCTAGAGTG | -1.19
24 | GATAAGAGCAAGAAACAGCAAATGCTTTTA | -1.01
25 | CTTTGGTATGGACTGATATTCAAACAGGTC | 1.31

Row | Sequence | binding signal (log2 normalized intensity)
26 | GAGCAAATACAGCACTCAAATGATCAAAGA | -1.13
27 | GAATGTCGTGCCCTAATCTCACTCTTTGTT | 1.08
28 | AAACCCAAGATTTGGTGTTACCTTTGGACT | 5.71
29 | AATTCTAGTCCTATCACTGTCTAGCTGTGT | 0.987
30 | CTGTCATGGTGCTGGCGGGAGCATAGCAGC | 0.301
31 | CCATTTGCGCTGGTTTTATGGTGTCTTATC | 2.04
32 | CCAGACCAAGAGCTTAACCTTTGCCATGTG | 3.61
33 | CTCTGTCATGTTCAATATACAGTTGGTATT | 2.13
34 | GCAGATGCTGGGCAAAGGGCAAGGCGTCTC | 2
35 | TTTCACGATAAAATACACAGGTAAACATTT | 0.544
36 | TTCAAATTCTTTGCCATGACCTTTGAAGCC | 6.75
37 | GGGATTGGGGATGCTCAAAGTACACTTGGA | 0.615
38 | CCAGATGATCTTTACCCTGGAATGCTGTTA | 1.33
39 | TTTGGGCGGGGAAAAGGGAGTAAAGGTCAC | 5.36
40 | AGGACCTTGGGTTCATTTTACAATGCAAAC | 1.18
41 | TGTCCCTCCTCAACCTCTCCAATGCTATGC | 1.48
42 | GCAGGCATACCAGGCAGAGGGTTAACCCCT | 2.86
43 | CATTCCTTTCTAATCTCAAAGTGTCAGTCC | 2.04
44 | ATAAAGTCCAAACCCCTATGTTTAATGTAT | 2.12
45 | GAAAACAAACATTAGCTGCAGATTCCACCT | -1.13
46 | GAGCAGTGAATGTTGAAGTCCCACGGCAAC | -1.1
47 | AAGAAGCGTCAGTTGCCTCGCCAGAGATAA | -1.12
48 | CAGTGGTAATGGAGCTGAAACTATAAACTT | -0.653
49 | ATTTCTTTTAATGTGTGCTTTCAGGTGTGA | 2.11
50 | TTCAAGGAGCTCGGCGCCAGGAAGCAATGG | -0.203

Row | Sequence | binding signal (log2 normalized intensity)
51 | ATAACCATGCTCAACATCAAAGGCCTTCCT | -1.21
52 | GCTCTTCAATGCATTCCTGAAGCCTTCCTT | 0.321
53 | GAACAAGGCTGAAGGGAAGCTCTGGGAGTG | -1.24
54 | TGGGCAGAGACTATGTGGTTTTGTAAATAT | 1.6
55 | TCTATGTCCACAGAAAGGCAAGAAGTATGA | 0.253
56 | CTAGCACCTGTGGATGCAGGTCTACCTTAT | 0.31
57 | AGCCTAGACTCAACACCCAGGCTTATCTCA | -1.17
58 | GGGGCAGGCAGGGGATGAGATCTGAAGATA | -0.99
59 | CCAGTTCCAAAGTCCAGGTGCTTTCTTCTT | 4.64
60 | AAGAAGTATGAAAGATGACTACCAGGTTCT | -0.936
61 | AGGTTCTCATACCTTCTGCTTCAGTTTTGC | 1.03
62 | GCTCCGCTTACTCGGCCTGGACCCCTCCGG | 0.866
63 | ACACTGCAGGCTCTGTCCCCGCCCAGCAGA | 2.77
64 | GGCAGAAGGTTCCAGGGAACTGTCCACCAA | -1.12
65 | CTGCCATAAGCGAAGATAACCTACTTAAAA | -1.2
66 | TGTAAGAAGTGTAAAAAGATAAGATGTACC | 0.662
67 | TAAATTCCAGAAAGCAACAAAAACCAAATC | -0.18
68 | CAACCCTTGTCACTTTCCCTTTGTCTCCAG | 1.23
69 | TTGGGCTGCACCCTGACTAAATTCTTGTCA | -0.979
70 | GCAGGGCTGCCTCGCTTCCGGGTGGGAGCT | -1.12
71 | AAGGCAGGAGATTCCACATTCCCTTCTTAG | -1.11
72 | AGTTAGGCAGGATGGGGTCATGATAAGAGC | 0.491
73 | GCAGAATGAGCAAGGTGGGTTCAGAGACCC | -0.724
74 | TCTTCCTAGGCAATCCCATGACCTTTGTAC | 8.78
75 | TCAACCTCTCTGGGGGATGGGTCCACACAG | 1.55

Row | Sequence | binding signal (log2 normalized intensity)
76 | GGGAGATAGTCTGAGAGTCACTGCCTTATC | -0.676
77 | TAAAATGCCCTCACAGGTTCCAGCATGGAC | 1.12
78 | CCAACAGAGTCATCACAATAGGGAAACAGC | -1.08
79 | CCTCCTAATCACTGCCCTTTGGTGCCTCTT | 2.28
80 | TCCCTAAGTACACACTGTACCCGTCCACCT | 1.47
81 | CACAAGGATCCCATTCATGTGGGTCAACAG | 0.413
82 | CCGAGGAACCCAGACTGCATTTTCATCTTG | -1.01
83 | GCATCTGTTGCTCAAGGAGGCCCAAAGGAA | 0.136
84 | AAAAGATTAAGTTATCCATGGAGTGTGAAA | 0.956
85 | CAAGATCCTAGTCTTTAGAGTAACCATTCT | -0.157
86 | ATCAATAAAAGGTCCAGAGTTCACTGCAGG | 3.16
87 | TGAAGGGGGCGGGGGCGAAAGGGAGGGGGC | -1.22
88 | TTCAAAGCCAGGACTTTCAGGAATGCACCC | 0.687
89 | AGATCAGTAGCTAGGAGACAACTTAGAATT | -1.16
90 | TTAATGGAAATGCCTAGGATACCTAGTAGG | -0.491
91 | GTGTTTACTGGGGGCCACCATATGTATGTG | -0.127
92 | GAGCCCTCTGATCTGACCCCTTCTTGACCT | 4.55
93 | ATTCCTAGATATCAGGAAGGTCAGAAAGCA | -0.0278
94 | AGTATTACCATGTCCTGTGATTAAGGTCAA | 2.32
95 | TCTCTCTTTTTCTGAGCCTGGGTCACCCCT | 2.15
96 | ACAAGTATACCTGTACACTTACAAGTGTAC | 0.94
97 | ACAGCTTTGGGCATACAAAACAACCACTCT | -1.1
98 | CAGAGGAGGCACTTGTCTCACATCTGATAG | -0.0984
99 | AAAACAGCCCTAACCAGGGGTGGGGACCTT | -0.891
100 | TAAGAGGCATGAGGTTCTTGTAAGGTTCTT | 0.28

Row | Sequence | binding signal (log2 normalized intensity)
101 | CGAGGAGGCTGAGGCAGGATGACTGCTTGA | -1.15
102 | TAGCCTAAACTATCTGGTGCGGTCCAAGAC | -1.3
103 | GTCAGGACCTTTCTTTATGGACCTTGTCCC | 5.94
104 | CTCTCTTCTTGTAATCCCATTTCCCTTGTT | 2.36
105 | TCAGTTGGTCCAAGGTACATGTCTCTGCTC | 1.73
106 | TACTCTTATCAGCAGTGACTTGAGAGGCCA | 1.13
107 | CTCCAACATGACCACCTGGTTTAAGTCACT | -1.08
108 | CAATGAGAAACCTCAAAGGTTAGGGGGATT | -1.25
109 | TTGCACCCAGGCCGTTGGACCAAGCTCTAG | -1.15
110 | CCAAAGAGAAGCCTAAGCAGGGCTAGACTT | -1.18
111 | TCTTGCTTCGCTCTCTTCTGGTGATCAAAC | 0.274
112 | CGAGCTGAGGCCAGACAGGGGGGCGCCTAC | -1.05
113 | GCTGGGTATACTGACTAGGACAGAGCAGAT | -0.403
114 | GGGTAGGCAGACAGGTTGGAGACGCAGAGA | -1.1
115 | ACTTCAGCCTTTGAGAAGCAGGAGCATGGG | -1.12
116 | GTCTCTGCTCCTAAAATTATGCCATTCTTT | 0.0244
117 | GTCAGGGCTAGGCTGATAAGGAGGGTAACA | -1.06
118 | GAGTTATTTCATAGACTGTCCCTCAGTGTG | 1.92
119 | GAAGTCCAGTAGCTCAATCAAGGTTCACTG | 1.17
120 | AACAGCACAAGCAATGGCTGGGTCTAAGGG | -1.02
121 | GCAAAGATCACCTGGTGGCCATCAAGCAGA | -1.13
122 | GACCTTCGGCCTCAATTATAACTCATGTTC | 3.32
123 | ATTTCTGAGAGAGAAAGAGACAGAGAGAGA | -1.19
124 | TGGACTTTCAACTGCAGGGGGGTGGGCACC | 1.78
125 | AATCTGGCTGCAGAGTCCAAGATGCTGTCT | 1.27

Row | Sequence | binding signal (log2 normalized intensity)
126 | AGAGCAAAGGTTACTGCAGAGAAGAAGCTT | 0.595
127 | ACGCCAGCAGCAGGGTCAGAAGGGAGGTAG | -1.14
128 | TATTTCACCCCAGCAAACAGGTCCTGCTGG | -1.12
129 | CCACAGATGATCAAAGGTCAGTCTTAGGAC | 4.8
130 | CCGCGGCGGGCCCTCGACCTTTGCCCTCCA | 9.87
131 | TCAATTATCACCACACAGCACGTAATAGTT | -0.161
132 | TCAAGATTTTACCTACTTCCTTTATTCACT | -1.23
133 | TATTAGGCATTTCATTTGCCCAGCTGTTCC | -0.0445
134 | TTTTGCAACATGAGGAGCCAAGTTTTGCAA | -1.09
135 | TGGCCACTCCCTGATAGAGAACAAGGTTCC | -0.772
136 | ACAGATAGCATAATCAAAGAGAAAAACATT | -0.839
137 | GGGCTTCAGGGTAAATCCCGTCCCTGCCAA | 0.623
138 | CGAGCGCTGCTTCTCGTCCCCGCCCGAGCC | 3.24
139 | TCCCAATCTCTGTGGGAGGGAAGGAGCCTA | -1.17
140 | ACCCAGGTGTGTTGCAACTTTGACTATAGC | 0.777
141 | AACTCAAAGATTCTTAGAGAGTTGGGCAAG | -0.976
142 | GGATTTCCGTAACCTCACAGAAATCCAAAG | -1.14
143 | CAAACACGGACAGGCAGGCCCAGACATGTC | -0.876
144 | GTGAATGACCCCTCCCCTCCCCCTTGGTGT | 5.61
145 | ACACAGGATTGAACCTCTGGAATTCATCTC | 0.145
